Assay results taken from patent US20250002455A1, “NEW N-PHENYLPYRROLAMIDE INHIBITORS OF DNA GYRASE AND TOPOISOMERASE IV WITH ANTIBACTERIAL ACTIVITY” (priority 2020, published 2025).

How the values were obtained:
M. tuberculosis H37Rv = experiment: microbe, parasite or virus in culture; settings: Mycobacterium tuberculosis, 168 h, read-out: Viability of Mycobacterium tuberculosis H37Rv (%)
[1] = test system: THP-1 macrophages infected with M. tuberculosis H37Rv

Cc1[nH]c(C(=O)Nc2ccc(-c3noc(=O)[nH]3)cc2N2CCC(N)CC2)c(Cl)c1Cl.Cl [Example 1, 1-(2-(3,4-Dichloro-5-methyl-1H-pyrrole-2-carboxamido)-5-(5-oxo-4,5-dihydro-1,2,4-oxadiazol-3-yl)phenyl)piperidin-4-aminium chloride]
viability at 1.25 µM (M. tuberculosis H37Rv): 4.1%
viability at 2.5 µM (M. tuberculosis H37Rv): 1.8%
viability at 5 µM (M. tuberculosis H37Rv): 0.2%
% GFP-Mtb [1]: 7.6%
% THP-1 macrophages [1]: 25.8%

Cc1[nH]c(C(=O)Nc2ccc(-c3noc(=O)[nH]3)cc2NC2CCNCC2)c(Cl)c1Cl.Cl [Example 4, 4-((2-(3,4-Dichloro-5-methyl-1H-pyrrole-2-carboxamido)-5-(5-oxo-4,5-dihydro-1,2,4-oxadiazol-3-yl)phenyl)amino)piperidin-1-ium chloride]
viability at 1.25 µM (M. tuberculosis H37Rv): 80%
viability at 2.5 µM (M. tuberculosis H37Rv): 13.6%
viability at 5 µM (M. tuberculosis H37Rv): 2.4%

Cc1[nH]c(C(=O)Nc2ccc(-c3noc(=O)[nH]3)cc2N2CCNCC2)c(Cl)c1Cl [Example 5, 4-(2-(3,4-Dichloro-5-methyl-1H-pyrrole-2-carboxamido)-5-(5-oxo-4,5-dihydro-1,2,4-oxadiazol-3-yl)phenyl)piperazin-1-ium chloride]
viability at 1.25 µM (M. tuberculosis H37Rv): 22%
viability at 2.5 µM (M. tuberculosis H37Rv): 2.3%
viability at 5 µM (M. tuberculosis H37Rv): 1.3%

Cc1[nH]c(C(=O)Nc2ccc(-c3noc(=O)[nH]3)cc2N2CCCC2)c(Cl)c1Cl [Example 6, 3,4-Dichloro-5-methyl-N-(4-(5-oxo-4,5-dihydro-1,2,4-oxadiazol-3-yl)-2-(pyrrolidin-1-yl)phenyl)-1H-pyrrole-2-carboxamide]
viability at 1.25 µM (M. tuberculosis H37Rv): 100%
viability at 2.5 µM (M. tuberculosis H37Rv): 112%
viability at 5 µM (M. tuberculosis H37Rv): 99%

Cc1[nH]c(C(=O)Nc2ccc(-c3noc(=O)[nH]3)cc2N2CCN(c3ccccc3)CC2)c(Cl)c1Cl [Example 7, 3,4-Dichloro-5-methyl-N-(4-(5-oxo-4,5-dihydro-1,2,4-oxadiazol-3-yl)-2-(4-phenylpiperazin-1-yl)phenyl)-1H-pyrrole-2-carboxamide]
viability at 1.25 µM (M. tuberculosis H37Rv): 100%
viability at 2.5 µM (M. tuberculosis H37Rv): 82.3%
viability at 5 µM (M. tuberculosis H37Rv): 109%

Cc1[nH]c(C(=O)Nc2ccc(-c3noc(=O)[nH]3)cc2N2CCOCC2)c(Cl)c1Cl [Example 8, 3,4-Dichloro-5-methyl-N-(2-morpholino-4-(5-oxo-4,5-dihydro-1,2,4-oxadiazol-3-yl)phenyl)-1H-pyrrole-2-carboxamide]
viability at 1.25 µM (M. tuberculosis H37Rv): 74.4%
viability at 2.5 µM (M. tuberculosis H37Rv): 52.2%
viability at 5 µM (M. tuberculosis H37Rv): 19.1%
viability at 10 µM (M. tuberculosis H37Rv): 10.5%
viability at 20 µM (M. tuberculosis H37Rv): 23%
% GFP-Mtb [1]: 7.6%
% THP-1 macrophages [1]: 30.4%

Cc1[nH]c(C(=O)Nc2ccc(-c3nn[nH]n3)cc2N2CCOCC2)c(Cl)c1Cl [Example 10, 3,4-Dichloro-5-methyl-N-(2-morpholino-4-(2H-tetrazol-5-yl)phenyl)-1H-pyrrole-2-carboxamide]
viability at 1.25 µM (M. tuberculosis H37Rv): 109%
viability at 2.5 µM (M. tuberculosis H37Rv): 94.2%
viability at 5 µM (M. tuberculosis H37Rv): 140%

Cc1[nH]c(C(=O)Nc2ccc(-c3n[nH]c(=O)o3)cc2OCc2ccccc2)c(Cl)c1Cl [Example 11, N-(2-(Benzyloxy)-4-(5-oxo-4,5-dihydro-1,3,4-oxadiazol-2-yl)phenyl)-3,4-dichloro-5-methyl-1H-pyrrole-2-carboxamide]
viability at 1.25 µM (M. tuberculosis H37Rv): 118%
viability at 2.5 µM (M. tuberculosis H37Rv): 112%
viability at 5 µM (M. tuberculosis H37Rv): 119%

Cc1[nH]c(C(=O)Nc2ccc(C(=O)O)cc2NC2CCNCC2)c(Cl)c1Cl.Cl [Example 15, 4-((5-Carboxy-2-(3,4-dichloro-5-methyl-1H-pyrrole-2-carboxamido)phenyl)amino)piperidin-1-ium chloride]
viability at 1.25 µM (M. tuberculosis H37Rv): 121%
viability at 2.5 µM (M. tuberculosis H37Rv): 128%
viability at 5 µM (M. tuberculosis H37Rv): 145%

Cc1[nH]c(C(=O)Nc2ccc(C(=O)O)cc2N2CCN(c3ccccc3)CC2)c(Cl)c1Cl [Example 16, 4-(3,4-Dichloro-5-methyl-1H-pyrrole-2-carboxamido)-3-(4-phenylpiperazin-1-yl)benzoic acid]
viability at 1.25 µM (M. tuberculosis H37Rv): 127%
viability at 2.5 µM (M. tuberculosis H37Rv): 134%
viability at 5 µM (M. tuberculosis H37Rv): 144%

Cc1[nH]c(C(=O)Nc2ccc(-n3nn[nH]c3=O)cc2N2Cc3ccccc3C2)c(Cl)c1Cl [Example 25, 3,4-Dichloro-N-(2-(isoindolin-2-yl)-4-(5-oxo-4,5-dihydro-1H-tetrazol-1-yl)phenyl)-5-methyl-1H-pyrrole-2-carboxamide]
viability at 1.25 µM (M. tuberculosis H37Rv): 112%
viability at 2.5 µM (M. tuberculosis H37Rv): 109%
viability at 5 µM (M. tuberculosis H37Rv): 130%

Cc1[nH]c(C(=O)Nc2ccc(-c3n[nH]c(=O)o3)cc2OC2CCNC2)c(Cl)c1Cl.Cl (centres unmarked) [Example 26, 3-(2-(3,4-Dichloro-5-methyl-1H-pyrrole-2-carboxamido)-5-(5-oxo-4,5-dihydro-1,3,4-oxadiazol-2-yl)phenoxy)pyrrolidin-1-ium chloride]
viability at 1.25 µM (M. tuberculosis H37Rv): 114%
viability at 2.5 µM (M. tuberculosis H37Rv): 111%
viability at 5 µM (M. tuberculosis H37Rv): 102%
viability at 10 µM (M. tuberculosis H37Rv): 99.2%
viability at 20 µM (M. tuberculosis H37Rv): 110%

Cc1[nH]c(C(=O)Nc2ccc(-c3n[nH]c(=O)o3)cc2OCC2CCCNC2)c(Cl)c1Cl.Cl (centres unmarked) [Example 28, 3-((2-(3,4-Dichloro-5-methyl-1H-pyrrole-2-carboxamido)-5-(5-oxo-4,5-dihydro-1,3,4-oxadiazol-2-yl)phenoxy)methyl)piperidin-1-ium chloride]
viability at 1.25 µM (M. tuberculosis H37Rv): 90.4%
viability at 2.5 µM (M. tuberculosis H37Rv): 87.7%
viability at 5 µM (M. tuberculosis H37Rv): 65.9%
viability at 10 µM (M. tuberculosis H37Rv): 38.8%
viability at 20 µM (M. tuberculosis H37Rv): 30.1%

Cc1[nH]c(C(=O)Nc2ccc(-c3n[nH]c(=O)o3)cc2OCCC2CCNCC2)c(Cl)c1Cl.Cl [Example 29, 4-(2-(2-(3,4-Dichloro-5-methyl-1H-pyrrole-2-carboxamido)-5-(5-oxo-4,5-dihydro-1,3,4-oxadiazol-2-yl)phenoxy)ethyl)piperidin-1-ium chloride]
viability at 1.25 µM (M. tuberculosis H37Rv): 107%
viability at 2.5 µM (M. tuberculosis H37Rv): 92.8%
viability at 5 µM (M. tuberculosis H37Rv): 88%
viability at 10 µM (M. tuberculosis H37Rv): 71.5%
viability at 20 µM (M. tuberculosis H37Rv): 75.5%

Cc1[nH]c(C(=O)Nc2ccc(-c3n[nH]c(=O)o3)cc2OCc2ccncc2)c(Cl)c1Cl [Example 30, 3,4-Dichloro-5-methyl-N-(4-(5-oxo-4,5-dihydro-1,3,4-oxadiazol-2-yl)-2-(pyridin-4-ylmethoxy)phenyl)-1H-pyrrole-2-carboxamide]
viability at 1.25 µM (M. tuberculosis H37Rv): 102%
viability at 2.5 µM (M. tuberculosis H37Rv): 96.4%
viability at 5 µM (M. tuberculosis H37Rv): 93.2%
viability at 10 µM (M. tuberculosis H37Rv): 93.5%
viability at 20 µM (M. tuberculosis H37Rv): 107%

Cc1[nH]c(C(=O)Nc2ccc(-c3n[nH]c(=O)o3)cc2OCc2ncccn2)c(Cl)c1Cl [Example 31, 3,4-Dichloro-5-methyl-N-(4-(5-oxo-4,5-dihydro-1,3,4-oxadiazol-2-yl)-2-(pyrimidin-2-ylmethoxy)phenyl)-1H-pyrrole-2-carboxamide]
viability at 1.25 µM (M. tuberculosis H37Rv): 103%
viability at 2.5 µM (M. tuberculosis H37Rv): 81.4%
viability at 5 µM (M. tuberculosis H37Rv): 71.7%
viability at 10 µM (M. tuberculosis H37Rv): 87.4%
viability at 20 µM (M. tuberculosis H37Rv): 115%

Cc1[nH]c(C(=O)Nc2ccc(-c3n[nH]c(=O)o3)cc2OC(C)C)c(Cl)c1Cl [Example 32, 3,4-Dichloro-N-(2-isopropoxy-4-(5-oxo-4,5-dihydro-1,3,4-oxadiazol-2-yl)phenyl)-5-methyl-1H-pyrrole-2-carboxamide]
viability at 1.25 µM (M. tuberculosis H37Rv): 95.5%
viability at 2.5 µM (M. tuberculosis H37Rv): 85.2%
viability at 5 µM (M. tuberculosis H37Rv): 72.2%
viability at 10 µM (M. tuberculosis H37Rv): 81.7%
viability at 20 µM (M. tuberculosis H37Rv): 92.5%

Cc1[nH]c(C(=O)Nc2ccc(-c3n[nH]c(=O)o3)cc2OCc2cccs2)c(Cl)c1Cl [Example 33, 3,4-Dichloro-5-methyl-N-(4-(5-oxo-4,5-dihydro-1,3,4-oxadiazol-2-yl)-2-(thiophen-2-ylmethoxy)phenyl)-1H-pyrrole-2-carboxamide]
viability at 1.25 µM (M. tuberculosis H37Rv): 85.8%
viability at 2.5 µM (M. tuberculosis H37Rv): 116%
viability at 5 µM (M. tuberculosis H37Rv): 118%
viability at 10 µM (M. tuberculosis H37Rv): 116%
viability at 20 µM (M. tuberculosis H37Rv): 115%

Cc1[nH]c(C(=O)Nc2ccc(C(=O)NCC(=O)O)cc2N2CCNCC2)c(Cl)c1Cl.Cl [Example 36, 4-(5-((Carboxymethyl)carbamoyl)-2-(3,4-dichloro-5-methyl-1H-pyrrole-2-carboxamido)phenyl)piperazin-1-ium chloride]
viability at 1.25 µM (M. tuberculosis H37Rv): 119%
viability at 2.5 µM (M. tuberculosis H37Rv): 107%
viability at 5 µM (M. tuberculosis H37Rv): 125%

Cl.N[C@H]1CCN(c2cc(C(=O)NCC(=O)O)ccc2NC(=O)c2cc(Br)c(Br)[nH]2)C1 [Example 38, (S)-1-(5-((Carboxymethyl)carbamoyl)-2-(4,5-dibromo-1H-pyrrole-2-carboxamido)phenyl)pyrrolidin-3-aminium chloride]
viability at 1.25 µM (M. tuberculosis H37Rv): 126%
viability at 2.5 µM (M. tuberculosis H37Rv): 124%
viability at 5 µM (M. tuberculosis H37Rv): 134%

Cc1[nH]c(C(=O)Nc2ccc(-c3n[nH]c(=O)o3)cc2N2CCNCC2)c(Cl)c1Cl.Cl [Example 41, 4-(2-(3,4-Dichloro-5-methyl-1H-pyrrole-2-carboxamido)-5-(5-oxo-4,5-dihydro-1,3,4-oxadiazol-2-yl)phenyl)piperazin-1-ium chloride]
viability at 1.25 µM (M. tuberculosis H37Rv): 39.4%
viability at 2.5 µM (M. tuberculosis H37Rv): 5.6%
viability at 5 µM (M. tuberculosis H37Rv): 4.6%

Cc1[nH]c(C(=O)Nc2ccc(-c3n[nH]c(=O)o3)cc2N2CCOCC2)c(Cl)c1Cl [Example 42, 3,4-Dichloro-5-methyl-N-(2-morpholino-4-(5-oxo-4,5-dihydro-1,3,4-oxadiazol-2-yl)phenyl)-1H-pyrrole-2-carboxamide]
viability at 1.25 µM (M. tuberculosis H37Rv): 122%
viability at 2.5 µM (M. tuberculosis H37Rv): 90.8%
viability at 5 µM (M. tuberculosis H37Rv): 11%

Cc1[nH]c(C(=O)Nc2ccc(-c3n[nH]c(=O)o3)cc2N2CCOC(C)C2)c(Cl)c1Cl (centres unmarked) [Example 43, 3,4-Dichloro-5-methyl-N-(2-(2-methylmorpholino)-4-(5-oxo-4,5-dihydro-1,3,4-oxadiazol-2-yl)phenyl)-1H-pyrrole-2-carboxamide]
viability at 1.25 µM (M. tuberculosis H37Rv): 138%
viability at 2.5 µM (M. tuberculosis H37Rv): 12%
viability at 5 µM (M. tuberculosis H37Rv): 45.3%

Cc1[nH]c(C(=O)Nc2ccc(-c3n[nH]c(=O)o3)cc2N2CC(C)OC(C)C2)c(Cl)c1Cl (centres unmarked) [Example 44, 3,4-dichloro-N-(2-(2,6-dimethylmorpholino)-4-(5-oxo-4,5-dihydro-1,3,4-oxadiazol-2-yl)phenyl)-5-methyl-1H-pyrrole-2-carboxamide]
viability at 1.25 µM (M. tuberculosis H37Rv): 164%
viability at 2.5 µM (M. tuberculosis H37Rv): 149%
viability at 5 µM (M. tuberculosis H37Rv): 37.9%
